Laboratory results reported in PubChem BioAssay AID588855 (National Center for Advancing Translational Sciences (NCATS), 2011).
Among all 410,000 compounds or so, about 5,000 (1.2%) were called active. The shares of active, inactive and inconclusive entries below differ from those in the screen. Calls follow the shape of the dose curve; as a rule, active = well fitted inhibition curve with a large enough effect; inconclusive = small, poorly fitted or top-dose-only effect; inactive = no such curve, though single readings can be large or run the other way. Where the call is inconclusive, the potency comes from a doubtful curve fit.

test: qHTS for Inhibitors of TGF-b; settings: HepG2 CAGA-GFP TGF-b/SMAD3 reporter, GFP fluorescence, 18 h, TGF-beta stimulated, 500 pg/mL final; series mostly up to 46.1 µM; activity, negative = inhibition: at the top concentration; also: nearly all actives have a fitted effect of over 65% in size
Outline: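 Inhibition was scored as loss of TGF-beta-induced (500 pg/mL final, 18 hours, 37 degrees C) GFP in HEPG2 cells carrying a CAGA-GFP reporter, in DMEM with 1% FBS. Well GFP was summed per cell; Activity was normalised to unstimulated and stimulated DMSO wells, then concentration-response fitting.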
% is scaled to controls: 0 for no effect and ±100 for the full control effect; potency is read from the fitted curve at half-maximal effect; tags tell the direction and shape of the fitted curve.

| Structure (SMILES) | Potency | activity, negative = inhibition |
| --- | --- | --- |
| Cc1ccc(-c2cc(NC(=O)CCl)n(-c3ccccc3)n2)cc1 | inconclusive: 35.5 µM [inhibitor, single point] |  |
| O=[N+]([O-])c1cccc(-c2nn(-c3ccccc3)cc2CO)c1 | inconclusive: 14.1 µM [inhibitor, single point] |  |
| COc1ccc(OC)c(NC(=O)CSc2nnc(CNC(=O)c3cc(OC)c(OC)c(OC)c3)o2)c1 |  | inactive: 0.0903% |
| CCOC(=O)c1c(/N=C/c2cccc(C)c2O)sc2c1CCN(C)C2 | inconclusive: 0.112 µM [inhibitor, full curve, poor fit] |  |
| COC(=O)C1=C(C)NC(=O)NC1c1ccsc1 (stereo not drawn) | inconclusive: 35.5 µM [inhibitor, single point] |  |
| Cc1ccccc1Cc1c(C)nc2c(C(=O)NCc3ccco3)cnn2c1C | inconclusive: 17.8 µM [inhibitor, single point] |  |
| CCn1c(=O)cc(OCC(=O)N2CCN(c3ccc(OC)cc3)CC2)c2ccccc21 | inconclusive: 35.5 µM [inhibitor, single point] |  |
| CCOc1ccc(S(=O)(=O)N2CCC(C(=O)OC(C)C(=O)N(C)C3CCCCC3)CC2)cc1 (stereo not drawn) | inconclusive: 5.01 µM [inhibitor, full curve] |  |
| O=C(O)CN1C(=O)/C(=C\c2cc(Br)ccc2OCc2ccc([N+](=O)[O-])cc2)SC1=S | inconclusive: 17.8 µM [inhibitor, single point] |  |
| CCc1noc(C)c1C(=O)OCC(=O)N(CC)c1c(N)n(Cc2ccccc2)c(=O)[nH]c1=O | inconclusive: 11.2 µM [inhibitor, partial curve, poor fit] |  |
| Cc1ccc(/C=C/c2onc(C)c2S(=O)(=O)N2CCC(C(=O)N3CCN(c4ccccc4F)CC3)CC2)cc1 |  | inactive: 0% |
| Cc1ccsc1/C=C/c1ccc2cccc(O)c2n1 | inconclusive: 22.4 µM [inhibitor, single point] |  |
| NS(=O)(=O)c1ccc(CCNC(=O)COC(=O)/C=C/c2ccc(OC(F)F)cc2)cc1 | inconclusive: 35.5 µM [inhibitor, partial curve, poor fit] |  |
| Cc1noc(C)c1COC(=O)CCN1c2ccccc2Sc2ccccc21 |  | inactive: -0.0894% |
| CC(C)N(CCNC(=O)COc1ccc2oc3c(c2c1)CCCC3)C(C)C |  | inactive: 0% |
| COc1ccc(C(O)(C(C)C)C(CN2CCOCC2)c2ccc(Cl)cc2)cc1 (stereo not drawn) | inconclusive: 17.8 µM [inhibitor, single point] |  |
| COc1ccc(C)cc1NC(=O)c1ccc(=O)n(Cc2ccccc2)c1 |  | inactive: -12.1% |
| Cc1nn(-c2ccc(Cl)cc2)c(=O)c2c(C)noc12 | inconclusive: 8.91 µM [inhibitor, partial curve, poor fit] |  |
